# Results taken from PubChem BioAssay AID686978 (National Center for Advancing Translational Sciences (NCATS), 2013).
# The whole screen tested about 420,000 compounds, of which about 64,000 (15%) were called active. The inconclusive results got no clear call from the source; some entries with a clear call stand among them for comparison. Calls follow the shape of the dose curve; as a rule, active = well fitted inhibition curve with a large enough effect; inconclusive = small, poorly fitted or top-dose-only effect; inactive = flat fitted curve, though single readings scatter. No potency is given beside an inconclusive call; the fits are too rough.
# Assay: qHTS for Inhibitors of human tyrosyl-DNA phosphodiesterase 1 (TDP1): qHTS in cells in absence of CPT; also: nearly all actives have a fitted effect of over 55% in size
# Conditions: DT40 Tdp1-/- hTDP1 cells, no CPT, ATP luminescence, 48 h; activity change, negative = growth inhibition: at 46.2 µM (top of the series) unless noted
# How it was run: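 Luminescent ATP content (CellTiter-Glo) served as the growth readout. Knockout chicken DT40 cells expressing human TDP1 were exposed to compounds without camptothecin for a minimum 48 hr at 37 °C.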
# % is scaled to controls: 0 for no effect and ±100 for the full control effect; potency is read from the fitted curve at half-maximal effect; tags tell the direction and shape of the fitted curve.
SMILES,Potency,"activity change, negative = growth inhibition"
Cc1nn(CCC#N)c2c1P(=S)(N1CCCC1)OC(c1ccc(F)cc1)=N2 (configuration not stated),"inconclusive [inhibitor, partial curve]",
Cc1ccc2ccccc2c1NC(=O)CNC1CCCCC1,"inconclusive [inhibitor, partial curve]",
Cc1ccc(C)c(-n2c(C)nc3ccccc3c2=O)c1,"inconclusive [inhibitor, single point]",
CSc1ncc(C(=O)Nc2ccc(Cl)cc2C(=O)c2ccccc2)c(C)n1,"inconclusive [inhibitor, single point]",
CC(Cc1ccccc1)[n+]1cc(/N=C(\[O-])Nc2ccccc2)on1 (configuration not stated),inactive,
CCCC(C)C1C(C#N)=C(N)Oc2c1c(=O)oc1ccccc21 (configuration not stated),"inconclusive [inhibitor, partial curve, poor fit]",
CC(C)CNC(=O)c1c(N)n(Cc2ccc3c(c2)OCO3)c2nc3ccccc3nc12,"inconclusive [inhibitor, single point]",
CCOC(=O)c1ccccc1C(=O)OCC,inactive,
O=C(Nc1ccccc1)N1CCC2(CC1)CCN(C(=O)Oc1ccccc1)CC2,"inconclusive [inhibitor, partial curve]",
CCOC(=O)C1(CCc2ccccc2)CCN(Cc2csc(C(C)=O)c2)CC1,"inconclusive [inhibitor, single point]",
CN1C(=O)C(=Cc2ccccc2OCc2ccccc2Cl)C(=O)N(C)C1=O,"inconclusive [inhibitor, single point]",
CN1CCN(c2nc([N+](=O)[O-])nn2C)CC1,inactive,
Cc1ccccc1-n1c(/C=C/c2ccc(O)cc2)nc2ccccc2c1=O,active: 5.8 µM,
CC(C)[C@H]1C(=O)N2CCC[C@H]2[C@]2(O)O[C@](NC(=O)[C@@H]3C[C@@H]4c5cccc6[nH]cc(c56)C[C@H]4N(C)C3)(C(C)C)C(=O)N12,active: 18.8 µM,
Cc1noc(C(=O)Nc2sc3c(c2C#N)CCC3)c1Cl,"inconclusive [inhibitor, single point]",
O=C(Nc1cccc(Cl)c1)c1cnc2sc(N3CCCC3)nn2c1=O,"inconclusive [inhibitor, full curve]",
O=C(Nc1ccc(C(F)(F)F)cc1)OC1CN2CCC1CC2 (configuration not stated),"inconclusive [inhibitor, single point]",
O=C(/C=C/c1ccccc1)N1Cc2ccccc2-n2nncc2C1,"inconclusive [inhibitor, single point]",
Cc1ccc(CN2CCCN(Cc3ccc(C)cc3)S2(=O)=O)cc1,inactive,
C#C[C@]1(O)CCC2C3C(=O)C=C4C(Cl)=CCC[C@]4(C)C3CC[C@@]21C (some centres not stated),active: 10.3 µM,
N#CC(CCN1CCOCC1)(c1ccccc1)c1ccccc1,,inconclusive: -32.9% [inhibitor]
CCCCCN1C(=O)c2ccccc2[C@@]2(C(=O)OCC)Cc3cc(Cl)ccc3[C@@H]12,"inconclusive [inhibitor, single point]",
COc1ccccc1CNC(=O)Cn1c(=O)oc2cc(Cl)ccc21,active: 18.4 µM,
O=S(=O)(c1cccc2ccccc12)N1Cc2ccccc2-n2nncc2C1,active: 11.6 µM,

SMILES,Potency,"activity change, negative = growth inhibition"
Cc1ccc(N)cc1N,inactive,
CN1C(C(=O)N2CCC3(CC2)OCCO3)=CC(c2ccc(F)cc2)=NS1(=O)=O,inactive,
CN1[C@@H]2CCC[C@H]1CC(=O)C2,inactive,
CCc1ccc(OCC(=O)Nc2cc3oc4ccccc4c3cc2OC)cc1,"inconclusive [inhibitor, single point]",
CCC12CN3CCN(CC(C3)/C1=N\O)C2,inactive,
Cc1ccc(S(=O)(=O)N(CC(=O)N/N=C\c2cccs2)c2cccc3cccnc23)cc1,"inconclusive [inhibitor, single point]",
COc1ccccc1-n1c(/C=C/c2ccc(O)cc2)nc2ccccc2c1=O,"inconclusive [inhibitor, single point]",
CCN(C(=O)CSc1ncccc1C(=O)Oc1cccc([N+](=O)[O-])c1)c1cccc(C)c1,"inconclusive [inhibitor, single point]",
O=C(NC1CCCCC1)Oc1cc2oc(=O)sc2cc1Cl,active: 14.6 µM,
O=C(Cc1ccc(Br)cc1)N1CCN(Cc2ccccc2)CC1,"inconclusive [inhibitor, single point]",
COC1C(O)C(C)OC(OC2CCC3(C)C(CCC4C3C(O)CC3(C)C(C5=CC(=O)OC5)CCC43O)C2)C1O (configuration not stated),active: 2.06 µM,
Cn1c(=O)c2c(-c3ccccc3)n3c(c2n(C)c1=O)C(c1ccco1)Nc1ccccc1-3 (configuration not stated),"inconclusive [inhibitor, single point]",
O=C(Nc1cccc(Cl)c1)OCC#CCN1CCCC1,"inconclusive [inhibitor, single point]",
CCOC(=O)c1c(N)n(CCCOC(=O)c2ccco2)c2nc3ccccc3nc12,active: 13 µM,
O=C1CC[C@]2(O)C3Cc4ccc(O)c5c4C2(CCN3CC2CC2)C1O5 (some centres not stated),inactive,
CC1=CC(=C2C(=O)NC(=S)NC2=O)C=C(C(F)(F)F)N1C,inactive,
O=C(CSc1nc2ccccc2c(=O)n1-c1ccc(Cl)c(Cl)c1)Nc1ccc2c(c1)CCC2,"inconclusive [inhibitor, single point]",
CCC(=NCc1cc(OC)cc(OC)c1)c1c(O)n(C2CCCCC2)c(=O)[nH]c1=O,"inconclusive [inhibitor, single point]",
Cc1cc(Br)c(NC(=O)CN2CC=C(c3ccccc3)CC2)c(Br)c1,"inconclusive [inhibitor, single point]",
CN1C(=O)NC(=O)C2(CCCC2)C1=O,inactive,
CCn1c(=O)cc(SCC(=O)N2CCC3(CC2)OCCO3)c2ccccc21,"inconclusive [inhibitor, partial curve]",
Cc1c(C(=O)O)cc(-c2ccccc2)n1Cc1ccccc1,inactive,
COC(=O)C1=C(c2cccc(Cl)c2)C[C@@H]2CC[C@H]1N2C(=O)NCC1CC1,"inconclusive [inhibitor, single point]",
